In general, inhibition refers to the relative decrease from the control value, in per cent.

Out of some 340,000 compounds screened, about 6,900 (2%) were called active. Cut-off read from the data, not from the text of the source: active = inhibition above about 30%; inactive = below that, where a call was filed. This is a selection; strong and weak results do not stand in their true shares. Entries without a call were filed so in the source.

This experiment addresses D(2) dopamine receptor (Homo sapiens) (UniProt P14416). The experiment is described as follows: HTS Assay for Allosteric Antagonists of the Human D2 Dopamine Receptor: Primary Screen for Antagonists. Note: 0% is about no effect. The settings on record: HEK293 TREx D2 cells, calcium flux, dopamine EC80; at 10 µM; stronger effect = higher value. The method, boiled down: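 Tetracycline-induced HEK293 T-REx cells expressing D2 force-coupled to calcium signalling were dye-loaded, exposed to compound for 180 s, then challenged with an EC80 of dopamine; calcium flux was followed kinetically for a further 180 s.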
Sequence of UniProt P14416 (P14416 whole entry, looked up): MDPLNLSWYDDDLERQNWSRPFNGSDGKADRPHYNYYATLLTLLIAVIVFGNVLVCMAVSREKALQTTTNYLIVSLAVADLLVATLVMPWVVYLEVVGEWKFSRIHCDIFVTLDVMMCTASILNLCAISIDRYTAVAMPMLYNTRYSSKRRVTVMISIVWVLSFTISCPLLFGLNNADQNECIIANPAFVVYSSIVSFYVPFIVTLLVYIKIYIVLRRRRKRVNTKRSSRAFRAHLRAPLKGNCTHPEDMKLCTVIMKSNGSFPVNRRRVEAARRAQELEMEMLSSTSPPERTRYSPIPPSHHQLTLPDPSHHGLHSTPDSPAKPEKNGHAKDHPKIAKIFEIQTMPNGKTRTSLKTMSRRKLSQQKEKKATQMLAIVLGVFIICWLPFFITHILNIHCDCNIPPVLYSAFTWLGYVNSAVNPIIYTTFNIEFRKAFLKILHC
In general terms: Calcium flux is commonly read through the fluorescence of an indicator in the cells.
Turning to `CCOC(=O)c1cc2c(=O)n3ccccc3nc2n(CC2CCCO2)c1=NC(=O)c1ccccc1C` (configuration not stated), the inhibition was found to be 8.12%.

In the case of `CCOc1ccc2nc(N3CCN(C(=O)c4ccco4)CC3)sc2c1`, the inhibition came out at 12.3%.

For the compound `Cc1ccc2c(=O)cc(C(=O)NCc3ccccc3)oc2c1`, the inhibition amounted to 11.3%.

Regarding `COc1ccc(CNC(=O)C2CCCN(S(=O)(=O)c3ccc4c(ccn4C)c3)C2)c(OC)c1` (configuration not stated), the inhibition turned out to be 7.32%.

Regarding `COc1ccc(NC(C)=O)cc1NC(=O)C1(c2cccs2)CCOCC1`, the inhibition was -8.09%.

`CCOC(=O)C1CCN(Cc2cccc(OCc3ccccc3)c2)CC1`: the inhibition is active: 86.2%.

In the case of `O=S(=O)(c1ccc(F)cc1)N(CC(O)Cn1c2ccccc2c2ccccc21)c1ccccc1` (configuration not stated), the inhibition was -12.8%.

Take `COc1ccc(C(=O)NCC(c2ccc3c(c2)OCO3)N2CCN(C)CC2)cc1` (configuration not stated): the inhibition was -12.5%.

For the compound `COc1cc(OC)c(N(C)C(=O)c2c(C)oc3ncnc(N4CCCCC4)c23)cc1Cl`, the inhibition stood at 8%.

Regarding `CCOc1ccc(CCNC(=O)c2nnc(Cc3ccc(Cl)cc3Cl)o2)cc1OCC`, the inhibition worked out at 5.33%.

As for `COc1ccccc1C(=O)NCCC(=O)NC(C)c1ccc(-n2ccnc2)cc1` (configuration not stated), the inhibition was active: 32.7%.

As for `COc1cc(OC)c(NC(=O)N2CCc3c([nH]c4ccccc34)C2c2ccccc2F)cc1Cl` (configuration not stated), the inhibition was 5.27%.

On to `O=C(Nc1ccccc1F)c1ccc(Cn2nc(N3CCN(c4ccccc4)CC3)ccc2=O)o1`, for which the inhibition was 5.19%.

For `Cn1cc(/C=N/NC(=O)c2cc3cc(Br)ccc3o2)c2ccccc21`, the inhibition was active: 65.6%.

Take `CCc1cc(C(=O)Nc2c(C)nn(Cc3ccccc3Cl)c2C)no1`: the inhibition is 2.48%.

Turning to `O=C(CCC(=O)N1CC2CCCN2c2ccccc21)NCc1ccc(F)cc1` (configuration not stated), the inhibition was determined as 17.3%.

On to `Cc1cc(C)c(NC(=O)CN2C(=O)c3cccnc3Sc3ccccc32)c(C)c1`, for which the inhibition turned out to be 14.4%.

With `COc1ccc(-c2nc(CSCC(=O)N3CCc4ccccc4C3)c(C)o2)cc1OC`, the inhibition was active: 45.3%.

Turning to `CCc1ccc(-n2c(=O)c3sc4ccccc4c3n(CC(=O)N(CC)Cc3ccccc3)c2=O)cc1`, the inhibition came to 4.37%.

As to `Cc1ccc2sc(-c3ccc(N)cc3)nc2c1`, the inhibition was -28.4%.

With `CCOC(=O)c1c(C)[nH]c(C)c1S(=O)(=O)N1CCCC(C(=O)Nc2cc(C)ccc2C)C1` (configuration not stated), the inhibition is -0.158%.

`CCC(=O)N1CCc2cc(CNC(=O)c3ccccc3C)ccc21`: the inhibition was determined as 3.59%.

In the case of `CCCCNC(=O)CSc1nc2nc(C)c(Cc3c(F)cccc3Cl)c(C)n2n1`, the inhibition was found to be 10.8%.

In the case of `CC(=O)c1ccc(NC(=O)COc2ccccc2-c2nc(-c3ccc(C)cc3)no2)cc1`, the inhibition is -5.12%.

For `Cc1ccc(OCC(=O)Nc2ccccc2C(=O)OCc2cc(=O)n3ccsc3n2)cc1`, the inhibition came to 7.56%.

`O=C(C1CCC(Cn2c(=O)c3sccc3n(Cc3ccccc3)c2=O)CC1)N1CCOCC1` (configuration not stated): the inhibition is -14.6%.

With `O=C(NC1CC(=O)N(c2cccc(F)c2)C1)c1ccc2c(c1)OCO2` (configuration not stated), the inhibition was -25.7%.

As to `O=C(Nc1cc2c(cc1C(=O)c1ccccc1Br)OCCO2)c1ccccc1`, the inhibition is -10.3%.

For `Cc1ccc(Cl)cc1N1CCN(C(=O)c2cnn(C)c2C2CCN(C(=O)OC(C)(C)C)CC2)CC1`, the inhibition came to 8.29%.

As to `Cc1ccc(-c2nnc(Nc3ccccc3O)c3ccccc23)cc1`, the inhibition was determined as 5.88%.

For `CSc1ccc(CNC(=O)Cn2nc(N3CCN(c4ccccc4)CC3)ccc2=O)cc1`, the inhibition is -5.41%.

Consider `CC(c1n[nH]c(=S)n1-c1ccccc1)N1CCCCC1` (configuration not stated), for which the inhibition was active: 70.7%.

For `COc1cccc(NC(=O)CSc2nnc(-c3cccc(OC)c3)o2)c1`, the inhibition was -22.2%.

For the compound `Cc1ccc(NC(=O)CSc2ncc(-c3ccccc3)[nH]2)cc1`, the inhibition is -7.68%.

Consider `COc1ccc(-[n+]2c(C)cc(/C=C3\Sc4ccccc4N3C)cc2C)cc1`, for which the inhibition is active: 47.7%.

`COc1ccc(S(=O)(=O)c2c(Nc3ccccc3F)sc(C(=O)c3cccc(OC)c3)c2N)cc1`: the inhibition stood at 6.72%.

Turning to `CCc1ccc(NC(=O)NCCc2c(C)nn(C)c2C)cc1`, the inhibition is -7.28%.

Regarding `CCc1ccc(NC(=O)CC2C(=O)NCCN2C(=O)c2ccc(F)cc2)cc1` (configuration not stated), the inhibition was 2.92%.

With `CCOc1ccccc1CNC(=O)c1ccc(CS(=O)Cc2cccc(Cl)c2)o1` (configuration not stated), the inhibition was -0.963%.

Turning to `COc1cccc(C2CC(=O)Nc3c2ccc(C)c3C)c1OC` (configuration not stated), the inhibition is -11.3%.

For `Cc1cccc(NC(=O)CSc2nnc(NC(=O)Nc3ccccc3)s2)c1C`, the inhibition turned out to be 20.2%.

On to `CSc1ccc(C2C(C(=O)Nc3ccccc3)=C(C)Nc3nc4ccccc4n32)cc1` (configuration not stated), for which the inhibition is -1.46%.

Turning to `CCN(CC)c1ccc(CNCCCSc2nnnn2C)cc1`, the inhibition amounted to 10.5%.

For `COc1ccc(CNC(=O)c2cc(Nc3ccccc3C)nc3ccccc23)cc1`, the inhibition is 7.96%.

As to `Cc1oc2ncn(C)c(=O)c2c1C(=O)N1CCN(c2cccc(C(F)(F)F)c2)CC1`, the inhibition was determined as 4.04%.

As for `COCCNc1nc2c(c(=O)n(C)c(=O)n2C)n1Cc1c(F)cccc1Cl`, the inhibition is -13.4%.

As for `CCOc1ccc(CN2C(=O)c3ccccc3Sc3ccc(C(=O)NCc4ccco4)cc32)cc1`, the inhibition is -2.67%.

Regarding `COc1ccc(Cl)cc1NC(=O)CSc1cn(CC(=O)N2CCCCC2)c2ccccc12`, the inhibition was -4.04%.

On to `CCCCN(C)CCCNC(=O)C1CCN(S(=O)(=O)CCC)CC1`, for which the inhibition was found to be 19.2%.

As for `COc1cc(C2C(=O)N(C3CCCCC3)CC(=O)N2CCc2ccccc2)ccc1OC(C)C` (configuration not stated), the inhibition is -5.13%.

As for `COc1ccc(-c2cc(C(F)(F)F)nc(SCCC(=O)Nc3ccc(NC(C)=O)cc3)n2)cc1`, the inhibition is -2.26%.

As for `O=C(Nc1ccccc1C(F)(F)F)c1ncoc1-c1ccco1`, the inhibition is -5.05%.

As for `CCN(CC)C(=O)NC1CC2CCCC(C1)N2Cc1ccccc1` (configuration not stated), the inhibition is active: 91.9%.

Turning to `Cc1nn(-c2ccccc2)c(OC(=O)c2ccccc2Br)c1S(=O)(=O)c1ccccc1`, the inhibition worked out at 3.47%.

Consider `COc1ccccc1CNc1nc2ccc(C)cc2n2nnnc12`, for which the inhibition was -5.54%.

On to `Cc1cc(NC(=O)c2ccc3c(c2)N(Cc2cccc(Cl)c2)C(=O)c2ccccc2S3(=O)=O)ccc1Br`, for which the inhibition is -22.1%.

`O=C(CS(=O)(=O)c1cccc2nsnc12)N1CCN(c2ccccc2F)CC1`: the inhibition was determined as 9.32%.

In the case of `O=C(Cc1ccccc1)NN1C(=O)/C(=C/c2ccccc2C(=O)O)SC1=S`, the inhibition was active: 30.7%.

Take `O=C1CC(c2c(Cl)cccc2Cl)c2c(ccc3ccccc23)N1` (configuration not stated): the inhibition was 6.1%.

As for `CC(C(=O)Nc1cccc([N+](=O)[O-])c1)N1CCN(C/C=C/c2ccccc2)CC1` (configuration not stated), the inhibition was active: 47%.

For `CC1=C(C(=O)Nc2ccccc2Cl)C(c2cccc(O)c2)n2ncnc2N1` (configuration not stated), the inhibition was -19.8%.

Consider `CCc1ccccc1NC(=O)CCCSc1nc(-c2ccco2)cc(C(F)(F)F)n1`, for which the inhibition amounted to 11.5%.

For `COc1ccc(NC(=O)C2=CC(c3ccco3)=NS(=O)(=O)N2C)cc1OC`, the inhibition amounted to 11.8%.

Take `CCCN(C(=O)c1cn(C)c(=O)c2cc(OC)c(OC)cc12)c1ccc(CC)cc1`: the inhibition is 3.06%.

In the case of `CCN(c1ccccc1)S(=O)(=O)c1nnc(NC(=O)c2ccccc2OC)s1`, the inhibition was -9.86%.

As to `CCOCCc1nn2c(=O)cc(COC(=O)c3ccc(NC(=O)C4CCCCC4)cc3)nc2s1`, the inhibition was 2.2%.

Regarding `COc1ccc(S(=O)(=O)c2c(Nc3cccc(C)c3C)sc(C(=O)c3ccccc3)c2N)cc1`, the inhibition was 3.13%.

On to `COc1ccc(-c2nc(SCC(=O)NC(C)CCc3ccccc3)n[nH]2)cc1` (configuration not stated), for which the inhibition was -18.2%.

As for `CCOC(=O)c1c(C)oc2nc(C)nc(NCCc3ccc(OCC)c(OCC)c3)c12`, the inhibition was -9.91%.

Regarding `COc1ccc(N2CCN(c3ncnc4c3cnn4-c3ccc(F)cc3)CC2)cc1`, the inhibition is -8.02%.

For `CCN(c1ccccc1)S(=O)(=O)c1c(C)nc2scc(C)n2c1=O`, the inhibition is -22.7%.

`COC(=O)c1ccc(NC(=O)CSc2cn(CC(=O)N3CCCCC3)c3ccccc23)cc1`: the inhibition is 9.3%.

Turning to `CC1CCN(S(=O)(=O)c2ccc3c(c2)c(=O)c(C(=O)N2CCN(c4cccc(Cl)c4)CC2)cn3C)CC1`, the inhibition came to 18%.

Turning to `O=c1c2cc3c(cc2nc2sc(Nc4ccccc4)nn12)OCO3`, the inhibition worked out at 16.7%.

Turning to `COc1ccc(NC(=O)CN2CCN(CC(=O)Nc3ccccc3F)CC2)c(OC)c1`, the inhibition was determined as 8.02%.

For the compound `O=C(Cn1cncn1)N/N=C/c1cc([N+](=O)[O-])ccc1O`, the inhibition is active: 51.9%.

For `CCCCC(=O)Nc1c(C(=O)N2CCN(c3ccccc3F)CC2)oc2ccccc12`, the inhibition amounted to 6.01%.

For the compound `CCCOC(=O)c1cccc(NC(=O)c2c(-c3ccccc3Cl)noc2C)c1`, the inhibition was -5.97%.

As to `O=C(Cn1nc(-c2ccc(Cl)cc2)c2ccccc2c1=O)Nc1cccc(Br)c1`, the inhibition was found to be 15.6%.

`CC(C)[C@H](NC(=O)N1CCn2c1nc1ccccc12)C(=O)N[C@H](C(=O)O)c1ccccc1`: the inhibition is active: 58%.

Consider `Cc1ccccc1Cn1c(COc2ccc(Cl)cc2)nc2ccccc21`, for which the inhibition was -0.147%.

For `Cc1nc2ccc(S(=O)(=O)N(C)CC(=O)Nc3ccc(C(C)C)cc3)cc2s1`, the inhibition worked out at 2.75%.

Consider `Cc1cccc(C2CN(C)CCc3c2cc(O)c(O)c3Cl)c1` (configuration not stated), for which the inhibition is active: 79.2%.

In the case of `COc1ccc(CNC(=O)C2CCN(c3nnc(-n4c(C)ccc4C)s3)CC2)c(OC)c1`, the inhibition was -0.944%.

Regarding `O=C(Nc1cccc(F)c1)C1CCCN(S(=O)(=O)c2cccc3cccnc23)C1` (configuration not stated), the inhibition was -24.7%.

For `COc1ccc(N(CC(=O)Nc2cc(C)cc(C)c2)S(=O)(=O)c2ccccc2[N+](=O)[O-])c(OC)c1`, the inhibition was active: 53.4%.

Take `COc1ccc(CNS(=O)(=O)c2cc3c(cc2Cl)N(C(C)=O)CCO3)cc1`: the inhibition was -0.275%.

Consider `COc1cc(NC(=O)CN2CCN(S(=O)(=O)c3ccc(Br)cc3)CC2)cc(OC)c1`, for which the inhibition was -12.1%.

In the case of `Cc1ccc(Nc2cc(C(=O)NCCc3ccccc3)c3ccccc3n2)c(C)c1`, the inhibition was found to be 9.27%.

With `COCCSc1ccccc1C(=O)NCCCn1ccnc1`, the inhibition is active: 38.8%.

Take `COc1ccc(NC(=O)CSc2nc(-c3cc(OC)c(OC)c(OC)c3)[nH]c2-c2ccc(F)cc2)cc1`: the inhibition turned out to be 18.8%.

With `CCC1CN(C(=O)N2CCC(C(=O)N3CCN(c4ccccc4F)CC3)CC2)c2ccccc2O1` (configuration not stated), the inhibition is 16.4%.

Turning to `CCC(Sc1nc2ncccc2o1)C(=O)Nc1ccc(OC)c(OC)c1` (configuration not stated), the inhibition is -1.59%.

Regarding `COc1ccc(C2CC(=O)c3cc(-c4nc(-c5cccc(Cl)c5)cs4)c(=O)[nH]c3C2)cc1` (configuration not stated), the inhibition was -1%.

In the case of `CC(C)Cc1ccc(C(C)C(=O)Nc2ccc(O)cc2)cc1` (configuration not stated), the inhibition was active: 38.8%.

For the compound `CSc1oc(-c2cccs2)nc1S(=O)(=O)c1ccc(Br)cc1`, the inhibition is -14.9%.

Turning to `O=S(=O)(c1ccc(Cl)cc1Cl)n1ccnc1`, the inhibition is -4.82%.

Source of the values: PubChem BioAssay AID485344 (National Center for Advancing Translational Sciences (NCATS), 2010).
